Assay results as given in paper PMC9911399, “Two distinct binding modes provide the RNA-binding protein RbFox with extraordinary sequence specificity”.
Changes are numbered by the printed parent chain; changes in the protein carry UniProt numbers. The list shows a part of the results.

T1: RBFOX1 RRM (Homo sapiens, UniProt Q9NWB1 109-208)
T1 sequence: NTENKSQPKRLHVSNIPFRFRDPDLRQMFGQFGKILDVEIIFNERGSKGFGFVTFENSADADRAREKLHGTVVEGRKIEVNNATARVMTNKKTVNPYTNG

B1: UCAACUU (DNA:RNA)
RNA: GGGAGACCGGAAUUCAGAUUGUCCUCAACUUUUAAAUCCCGUCGUAGCCACCA
DNA 1: CAATCTGAATTCCGGTCTCCC
DNA 2: TGGTGGCTACGACGGGATT
B2: UACUACG (DNA:RNA)
RNA: B1 RNA with C26A, A27C, A28U, C29A, U30C, U31G
DNA 1: CAATCTGAATTCCGGTCTCCC
DNA 2: TGGTGGCTACGACGGGATT
B3: AUAUCUU (DNA:RNA)
RNA: B1 RNA with U25A, C26U, A28U
DNA 1: CAATCTGAATTCCGGTCTCCC
DNA 2: TGGTGGCTACGACGGGATT
B4: GUACUGG (DNA:RNA)
RNA: B1 RNA with U25G, C26U, A28C, C29U, U30G, U31G
DNA 1: CAATCTGAATTCCGGTCTCCC
DNA 2: TGGTGGCTACGACGGGATT
B5: GCCCGAU (DNA:RNA)
RNA: B1 RNA with U25G, A27C, A28C, C29G, U30A
DNA 1: CAATCTGAATTCCGGTCTCCC
DNA 2: TGGTGGCTACGACGGGATT
B6: GGUCGAG (DNA:RNA)
RNA: GGGAGACCGGAAUUCAGAUUGUCCGGUCGAGUUAAAUCCCGUCGUAGCCACCA
DNA 1: CAATCTGAATTCCGGTCTCCC
DNA 2: TGGTGGCTACGACGGGATT
B7: CGUUAGC (DNA:RNA)
RNA: B6 RNA with G25C, C28U, G29A, A30G, G31C
DNA 1: CAATCTGAATTCCGGTCTCCC
DNA 2: TGGTGGCTACGACGGGATT
B8: GACCAAA (DNA:RNA)
RNA: B6 RNA with G26A, U27C, G29A, G31A
DNA 1: CAATCTGAATTCCGGTCTCCC
DNA 2: TGGTGGCTACGACGGGATT
B9: GUUUGAG (DNA:RNA)
RNA: B6 RNA with G26U, C28U
DNA 1: CAATCTGAATTCCGGTCTCCC
DNA 2: TGGTGGCTACGACGGGATT

What follows are binders tested against T1, RBFOX1 RRM (assay: EMSA; HiTS-Eq, 1 nM pool, 10 min; buffer printed only for the single-RNA assays: 10 mM Tris pH 7.5, 150 mM NaCl, 3.4 mM EDTA, 0.001% NP-40, 30 C). Conditions: tags: His6 N-terminal (pET28a); label: 5' 32P.
In short: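 Purified RbFox RRM, wild type or mutant, was incubated for 10 min in 50 µL with 1 nM of a 5′-radiolabelled RNA pool carrying 7 randomized nucleotides, whose flanks were annealed to DNA oligonucleotides, over a series of increasing protein concentrations. Unbound RNA was resolved on 8% native PAGE, cut out, reverse-transcribed, barcoded by PCR and sequenced on an Illumina HiSeq 2500. Relative association constants were derived from changes in read counts for each RNA species versus the control reaction and normalised to the cognate motif.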
In the case of B1, the binding signal is reported as 0.00236 KA relative to UGCAUGU.
B2 was tested, and the binding signal was 0.0111 KA relative to UGCAUGU.
In the case of B3, the binding signal is reported as 0.00164 KA relative to UGCAUGU.
In the case of B4, the binding signal is reported as 0.0161 KA relative to UGCAUGU.
In the case of B5, the binding signal is reported as 0.0157 KA relative to UGCAUGU.
In the case of B6, the binding signal is reported as 0.0142 KA relative to UGCAUGU.
B7 was tested, and the binding signal was 0.0114 KA relative to UGCAUGU.
In the case of B8, the binding signal is reported as 0.00104 KA relative to UGCAUGU.
In the case of B9, the binding signal is reported as 0.0281 KA relative to UGCAUGU.
